Read counts are not given, so values of variants with three or more changes are uncertain.
B1: LINE1-full (parent)
chain: UACGUAGGUGGUUUUCCCCUGAUAGUGCUAAGGGGGCCUGGAAGUUUGGACUGGGCAGAGCUCAACACAGCGUGGCAAAGUGGCUGUGGCUAGACUGCCUCUCUGGAUUCCUCGUCACUCAGCAGGGCAUCUCUGAGAGAAAUGCC

Variants of: B1
Experiment: self-cleavage, relative activity (ratio to wild type); higher = more cleavage; in vitro, sequencing; the parent is a self-cleaving ribozyme

Variant	self-cleavage
U1C U62C G83A	0.01
A59U A69G A78G U112A A124G	0
A65G G70U U143A	0.06
U1A U20C G35U U47A U102C U130C	1.48
U15A U96A C123U	0.04
U5C A121G U132A	0.67
C37G A77G U115A	2.3
A94G U104A U109C	0
U12G A22G U73A U115A	1.14
U13A G32A G33U A43G C61U A78C	0.04
U15A C71A A79G G97U	0.07
U12C U52C A64U U130A	0.87
U26C A42G A138G	0.26
U15C U73C A94G	0.61
U13C U39A U115A U132C A141G	2.18
U81C U87C A136C	0.48
A2G U14C G80A U100A	0.98
A31G U73C G93A	0.12
C19U U47A A64U A78G U81C U102C	0
U15C A59G U112A	0.08
U9A U47A A64G	0.21
U14C A77G A94G A124G	0
U9C A57G A138G A141G	1.64
A57U C110A U130A	0.09

Variant	self-cleavage
U9A U39A A138G	1.08
A69U U85C U87C	0
A43G U104A A136G	2.55
U14C A22U A67G U87A U132C	0.18
A24G G35A A50G	0.64
U13A C51A A129U U134C	0.73
A2G U47C U81A	1.39
U15C G88A A117U	0.06
G72A U96A C110U U112A A124U A142G	0
U15C U52A U143C	1.21
U39A U96C U104C	0.13
A65G U81C U112C U134A	0
U14C U26C A57U U87G U100A	0.26
A121U A142G U143C	1.91
U20C A43G C51G A78U	2.17
U13C U29A A92G C99U U104A U109C	0
A50G G80A U85C	0.15
A43G U73G A79G	1.84
U23C A92G A141C	0.29
U47C U52A A67G U134C	0.42
U20C U26C U39A A92U	0.95
A22U U45C G125C A136U	1.64
U23C U100C A136G	1.43
U5C G82A U108C	2.32

Variant	self-cleavage
G21A U45C A94G	0.25
A30G A59U C71A	0.64
U20C U26C A59G A77U U143C G144U	0.14
C3U A107U C120U	0.88
U29C U73C A117U	1.36
A77G U87A A121U	0.09
U14C A59G A117U	0.16
U26C G82U U85C U130C	0.27
U14C G75A A92U	0.44
G122A A124G A136G	1.25
G7U G127A C145U	1.74
A42U G54A G72A A94G	0.07
A6U G35A A79G U85C U108C A124U	0.57
A79U A94G A138G	0.23
C18A A79G C110A	0.19
C3U U15C A65G G88A	0.07
U62C A78G U102C	0.18
U12A A77G G86A	0.13
U9A U12C U115C	2.63
U39A U52A U132C	1.38
A6G A78G A121G A129U	1.27
A6U U13C A59G U104C A140U	0
C71G A77G C110U	0.57
U46C A50U A79G	1.77

Variant	self-cleavage
A22U G32A U47C U96A	0.07
U29C A79G U119C	0.68
U96A U108A U112C	0.04
A6G A22G G25A G36U U100C	1.38
U9C U12C U104C	1.15
A22G U81C A141G	1.21
U73C A107G U115A	1.31
U23A A77U U112A	1.13
A2G A92G U115A	0.77
U20C U26A A30G A42G A50U A59G	0.82
U13C A24G U112A	0.48
A77U A78C U115C	1.45
A6G A22C A31U A65U	0.15
A22U A42U A69G	0.43
A22G A43G U46C U85A	0.17
U62C U108C U115C	0
U14A C19U U115C A124G	1.04
U62C A121G A136G	0.05
U12A U26A U112A	1.15
A24G A50G A121U	1.53
U14C A78U U87A U115A	0.08
G4A A67G A142G	0.28
C19U A117U A141G	1.23
U45C G49U U100C	1.62

Variant	self-cleavage
U45G G75A U85A	0.08
A77G U112C A138G	2.37
A2U A43G A78G A140G	0
U85C A129G C146U	0
A94U A142G C146A	0.31
C56U A69U A142G	0.09
U9A U14C C37A U87C U100C	0.54
C37G A43G U46G A57G U73C G75A U87C A121U	0
A42G G48A U73G	1.39
G70U U134C A142G U143A	0.08
U20C G27A A31G A121U A142G	1.31
A50U U52A G82A U96C	0.05
U85A A107U U115C	0.13
U26A A65U A77G	0.21
A31G A77G U81G A124G	1.02
U45C G55A A59G U115A	0.08
U15A A79G U132C U143C	1.97
U13C A117U A129U	1.53
C84A C128U A129G	0.07
U115C A117C A140G	2.35
A65C U85A U130C A140G	0.21
U47A A140G A142G	1.33
A50U A129G A136G	1.91
U14C U15A A50U U73C U130A	0.61

Variant	self-cleavage
U13C A77G U85C U134C	0
A6G U46A A129G U132A	0
G33C G36A U45A	0.84
U14C A92G U130C	0.29
U29A U100C U134C	0.44
A22U U29C U73C A117G	1.67
A64U U73A U130C U143C	0.7
U29C U47C A64G A79G	1.31
U9C U47C U62C U96C A129U	0
A43G U45C U52G	0.92
U23C U96A A140G	0.13
U13G A79U U81C G93A U96A	0.35
U5C U39G A140G	0.81
C17A U112C A141G	0.72
U15A A30G A50U U104A A124U	1.3
U1G G53U A77G	0.71
A57G U62C A129G A141G U143C	0
U14C U62A U73C G88A	0.09
U73C U96C U104C C128U	0
U23C A57G A129G U134C	0.92
A22G U23G A67G G137A	1.25
U15C U132A A141G	1.6
A42G U52C A129G U132C	1.31
U14C A59U U87C A129U	0.44

Variant	self-cleavage
A59G U87G A141C	0.22
A94G C110A A136U	0.2
U1C A65U A77G U87C U130C A141G	0
U29A A121U U134A	0.69
U29C U119C A124G A140G	0.6
U12C U134C A140G	0.86
A43G A67U A121G	0.28
U13C U62C A67U U102C	0
C37G A43G A141G	0.68
U5A G35U A64G U130C	0.14
A6U U20A U119C	1.77
A2G A78G A138G	1.5
U13A U47A U134C	0.5
U13C A43G A124U A142G	1.74
U13A A142U U143A	0.89
U12G A64G A107G U130C	0
A6U U39A A77C G89U	0.07
A92G U96A U112C A140U	0.1
A57G U115G U132C	0.68
U13C U15C U45C A67G G88U	0.37
C3U A22G U62C A64G	0.18
U12C A22G U62C A67U	0
A2U A57G G72A	0.69

Source: the RNAGym collection of RNA variant scans (doi:10.7554/elife.90254)
